Among all 360,000 compounds or so, about 11,000 (3.1%) were called active. Inconclusive means that the source gave no clear call. Such entries were picked first, then a sample of the others. Calls come from the whole dose curve; as a rule, active = well fitted inhibition curve with a large enough effect; inconclusive = small, poorly fitted or top-dose-only effect; inactive = no such curve, though single readings can be large or run the other way. Potencies of inconclusive entries are left out as doubtful fits.
target: Schistosoma mansoni thioredoxin glutathione reductase (TGR) (UniProt Q962Y6); test: qHTS Assay for the Inhibitors of Schistosoma Mansoni Peroxiredoxins; conditions: purified TGR, DTNB reduction, TNB absorbance 405 nm; activity change, negative = inhibition: at 114 µM (top of the series) unless noted; note: nearly all actives have a fitted effect of over 60% in size
Summary of the method: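 TGR 20 nM + NADPH 100 uM (dispensed conc.), cpd preinc 15 min RT; start with NADPH (500 uM addition) then DTNB (15 mM addition). Kinetic TNB absorbance, 405 nm filter. Four-parameter Hill fit across titration.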
% is set by controls: 0 for no effect and ±100 for the full control effect; potency is the fitted concentration of half-maximal effect; tags give direction and shape of the fitted curve.

| Compound | Potency | activity change, negative = inhibition |
| --- | --- | --- |
| O=C1CC(=O)N(Cc2ccco2)C(=O)N1 | inconclusive [inhibitor, full curve, poor fit] |  |
| Cc1nc([N+](=O)[O-])c(Sc2nc3ccccc3n2C)n1Cc1ccccc1 | active: 8.91 µM |  |
| CCCc1c(C(=O)OCC)nnc2c(-c3ccccc3)c(C)nn12 | inconclusive [inhibitor, full curve, poor fit] |  |
| COc1cc(OC)cc(C(=O)NCC(=O)N2CCN(c3ccc(O)cc3)CC2)c1 | inconclusive [inhibitor, partial curve] |  |
| CC(=O)Nc1ccc(SC[C@H](CC(C)C)N2CCN(CCc3ccccc3)CCC2=O)cc1 | inconclusive [inhibitor, full curve] |  |
| CSc1nnc(C)c(=O)n1COC(=O)c1ccccc1 | inconclusive [inhibitor, single point] |  |
| COc1ccc(NC(=O)CSc2nnc(-c3ccccc3)n2Cc2ccco2)cc1OC |  | inactive: -3.03% |
| O=C1OC(C(=O)O)Cc2ccccc21 (stereo not given) | inconclusive [inhibitor, partial curve] |  |
| CCOc1ccc(/C=C/C(=O)c2cc(Br)ccc(=O)c2O)cc1 | active: 28.2 µM |  |
| Fc1ccc([C@@H]2Nc3ccccc3[C@@H]3C=CC[C@@H]32)cc1 | active: 5.62 µM |  |
| O=C(CCNS(=O)(=O)c1ccccc1C(F)(F)F)N1CCCCCCC1 |  | inactive: -17.9% |
| Cc1ccc(CNC(=O)CSc2nc(=O)n(Cc3ccco3)c3c2CCC3)cc1 | active: 39.8 µM |  |
| O=C(CNC(=O)c1ccco1)OCC(=O)c1ccc2ccccc2c1 |  | inactive: 0% |
| COc1ccccc1-c1nc2ccccc2c(=O)n1O |  | inactive: -7.78% |
| O=C(CC1S/C(=N/N=C/c2cccs2)NC1=O)Nc1ccc(Cl)c(Cl)c1 (stereo not given) |  | inactive: -2.89% |
| CCc1nnc(NC(=O)C2CCCN2C(=O)Nc2ccc(C)cc2)s1 (stereo not given) |  | inactive: -7.98% |
| Cc1ccc(F)c([C@H]2[C@H]3C=CC[C@@H](C)[C@@H]3C(=O)N2Cc2ccccc2)c1 | inconclusive [inhibitor, partial curve] |  |
| COc1ccc(C2=NN3C(=O)c4c(ccc(OC)c4OC)C3C2)cc1 (stereo not given) |  | inactive: 5.22% |
| O=C(O)CC1CCC(=C(Cl)Cl)C1 (stereo not given) | inconclusive [inhibitor, full curve] |  |
| COc1ccc(Br)cc1CNC(=O)c1cnc2sc(N3CCCCCC3)nn2c1=O |  | inactive: -0.791% |
| O=C1C(Cc2ccccc2)Nc2ncnc(N3CCN(c4ccccc4)CC3)c2N1Cc1ccccc1 (stereo not given) | inconclusive [inhibitor, partial curve] |  |
| Oc1c(Br)cc(Br)cc1Oc1ccc(Br)cc1Br | inconclusive [inhibitor, partial curve] |  |
| COc1cccc(C(O)c2nc3ccccc3n2C)c1 (stereo not given) | inconclusive [inhibitor, full curve] |  |
| COc1ccc(-n2c(-c3ccco3)n[nH]c2=S)cc1 | inconclusive [inhibitor, partial curve] |  |
| CCC1(C)Cc2c(sc3nc(SC)nc(NCCN(C)C)c23)CO1 (stereo not given) |  | inactive: -1.98% |

| Compound | Potency | activity change, negative = inhibition |
| --- | --- | --- |
| CCOC(=O)c1c(C)c(C(=O)NCc2ccco2)c(C)n1Cc1ccccc1 | inconclusive [inhibitor, partial curve] |  |
| COc1ccc(-c2nc3ccccc3n2Cc2ccc(C)cc2)cc1 | inconclusive [inhibitor, full curve, poor fit] |  |
| CSCCC(NC(=O)c1ccc(Cl)cc1Cl)C(=O)N(C)Cc1nc2ccccc2c(=O)[nH]1 (stereo not given) |  | inactive: -2.54% |
| OCCCc1n[nH]c(=S)n1-c1ccccc1 | active: 44.7 µM |  |
| CCOc1ccc(-n2nc3ccc(NC(=O)c4cccc(F)c4)cc3n2)cc1 |  | inactive: 6.25% |
| Cc1ccc(N=C2SCCCN2C(=O)C2=COCCO2)cc1Cl | inconclusive [inhibitor, partial curve] |  |
| Clc1cccc(Cl)c1CNc1ccc(N2CCCC2)cc1 | inconclusive [inhibitor, full curve] |  |
| COc1ccc(NC(=O)c2ccc(Br)c(S(=O)(=O)N3CCOCC3)c2)cc1 |  | inactive: 8.25% |
| O=C(O)c1ccccc1NS(=O)(=O)c1cccc(-n2sc3ccccc3c2=O)c1 | inconclusive [inhibitor, full curve] |  |
| COc1ccc(N=C2S/C(=C\c3cc(C)n(C)c3C)C(=O)N2C)cc1 | active: 50.1 µM |  |
| CCS(=O)(=O)c1nc(S(=O)(=O)c2ccc(C)cc2)c(NC(C)c2ccccc2)s1 (stereo not given) |  | inactive: -11.9% |
| O=c1oc2ccc(Cl)cc2nc1/C=C(\O)c1ccco1 | inconclusive [inhibitor, partial curve] |  |
| O=C(CCn1c(=O)[nH]c2ccsc2c1=O)NCc1ccc(F)cc1 | inconclusive [inhibitor, single point] |  |
| O=C(CN1CCN(C(=O)c2ccccc2)CC1)Nc1ccc(Br)cn1 | inconclusive [inhibitor, partial curve] |  |
| Cc1c(C=O)c(Cl)n(C)c(=O)c1C#N | inconclusive [inhibitor, full curve, poor fit] |  |
| CN(C)c1ccc(/C=C/C(=O)c2cc(Cl)ccc2O)cc1 | inconclusive [inhibitor, full curve] |  |
| CC#CCCC(=O)N1C=Cc2ccccc2C1C#N (stereo not given) | inconclusive [inhibitor, partial curve, poor fit] |  |
| CCCn1nc(Oc2nc(N(C)C)nc(N(C)C)n2)ccc1=O |  | inactive: 3.53% [at 57.1 µM] |
| Cc1cccc2c(=O)c(C(=O)NCCc3ccccc3)c[nH]c12 |  | inactive: 8.42% |
| Cc1cc(C)cc(NC(=O)N2CCC(NC(=O)c3ccccc3C)CC2)c1 | inconclusive [inhibitor, single point] |  |
| COc1ccccc1Cc1nc2ccccc2nc1SCC(=O)Nc1ccccc1C(F)(F)F |  | inactive: -4.93% |
| CCCCNCCOCCOc1ccc(F)cc1 | inconclusive [inhibitor, full curve, poor fit] |  |
| CCOC(=O)c1cnc2c(C)c(C)ccc2c1NCCN1CCOCC1 |  | inactive: 5.92% |
| CCN(c1ccccc1)c1nc2ccsc2c(=O)s1 |  | inactive: -0.496% |
| CC1(C)CC(N2CCN(C(c3ccccc3)c3ccccc3)CC2)=CC(=[N+]2CCCCC2)C1 | inconclusive [inhibitor, partial curve] |  |

| Compound | Potency | activity change, negative = inhibition |
| --- | --- | --- |
| O=S(=O)(Nc1ncccn1)c1ccc(NC(=S)Nc2ccc(Cl)cc2)cc1 | inconclusive [inhibitor, partial curve] |  |
| O=C(NC1CCCCC1)C(c1cccnc1)N(C(=O)CCl)c1ccccc1Cl (stereo not given) | inconclusive [inhibitor, partial curve] |  |
| CCc1ccccc1NC(=O)N1CCc2cc(OC)c(OC)cc2C1CC(=O)OC (stereo not given) |  | inactive: 0.549% |
| O=C1c2oc3ccccc3c(=O)c2C(c2cccc(O)c2)N1CCCN1CCOCC1 (stereo not given) | active: 39.8 µM |  |
| Cc1ccc(-c2ccnc3c(Cl)c(C)nn23)cc1 | inconclusive [inhibitor, partial curve] |  |
| COc1ccc(-c2oc3ncnc(NCCN4CCOCC4)c3c2-c2ccc(OC)cc2)cc1 |  | inactive: -22.2% [at 11.4 µM] |
| CCOC(=O)C1=C(CC)OC(N)=C(C#N)C1c1ccc(OC)c(OC)c1OC (stereo not given) | inconclusive [inhibitor, partial curve] |  |
| CCC1CN(C(=O)N2CCC(C(=O)NCc3ccco3)CC2)c2cc(C)ccc2O1 (stereo not given) | inconclusive [inhibitor, full curve, poor fit] |  |
| COc1ccc(C)cc1S(=O)(=O)N(C)CC(=O)NC1CC1 |  | inactive: -9.41% |
| CCCCCCn1c(CN2CCN(Cc3ccccc3)CC2)nc2c1c(=O)n(C)c(=O)n2C | inconclusive [inhibitor, single point] |  |
| COC(=O)c1ccccc1NC(=O)Cn1nc(C(F)(F)F)c2c1CCCC2 |  | inactive: 5.36% |
| CCn1c(Cc2ccccc2)nnc1SCC(=O)Nc1ccccc1N1CCOCC1 |  | inactive: 0% |
| CC(=O)c1cc(N2CCOCC2)ccc1[N+](=O)[O-] | inconclusive [inhibitor, partial curve] |  |
| CCc1cc2c(cc3c(=O)n(CC(=O)N4CCN(C)CC4)ncn32)s1 | inconclusive [inhibitor, full curve, poor fit] |  |
| Cc1cn(C)c(CC(=O)N2CCN(c3ccc(F)cc3)CC2)c1C(=O)O |  | inactive: -3.16% |
| O=C(c1ccc2c(c1)OCO2)N1CCC2(CC1)Oc1ccc(F)cc1C(=O)C21CC(c2ccc(Cl)cc2)=NO1 (stereo not given) |  | inactive: 8.68% |
| Cc1cc(NC(=O)CSc2c(C)[nH]c3ccccc23)no1 |  | inactive: 3.82% |
| Fc1cccc(Cl)c1C1Nc2cccc3cccc(c23)N1 | inconclusive [inhibitor, full curve, poor fit] |  |
| CCOC(=O)C1(Cc2cccc(OC)c2)CCN(Cc2cc(OC)ccc2OC)CC1 |  | inactive: -3.49% |
| CCCc1cc(=O)oc2cc(C)cc(OCC(=O)Nc3ccccn3)c12 |  | inactive: -1.43% |
| COc1cc(-c2nc(S(=O)(=O)c3ccc(Cl)cc3)c(N3CCOCC3)o2)cc(OC)c1OC | inconclusive [inhibitor, partial curve] |  |
| O=C(CN1CCN(S(=O)(=O)c2ccc(Cl)cc2)CC1)NCC1(N2CCOCC2)CCCCC1 | inconclusive [inhibitor, single point] |  |
| Cc1cc(C)c2nc(-c3ccccn3)cc(C(=O)NCc3ccco3)c2c1 | inconclusive [inhibitor, partial curve] |  |
| Cc1ccc(-c2nc(CSCC(=O)N3CCN(c4ccccn4)CC3)c(C)o2)cc1 | inconclusive [inhibitor, full curve, poor fit] |  |
| NS(=O)(=O)c1ccc(NC(=O)COC(=O)c2cnc(Cl)c(Cl)c2)cc1 | inconclusive [inhibitor, partial curve] |  |
